The IC50 comes from the fitted curve, where viability falls to half of the control; where the fit passes the top or lowest dose, that dose stands as a limit. For AUC the same curve is integrated over the 256-fold range of doses and scaled to a fraction; it is 1 without any effect and falls as sensitivity rises. For part of these data: Where the top dose is marked as inferred, it is not printed in the source and was worked back from the curve model. For part of these data: Drugs with an entry number were screened twice under separate entries, and the two screens often disagree.
Assays:
Assay in all cases: Viability of human cancer cell lines after 72 h of drug (GDSC screen)
JNJ-26854165 = compound: c1ccc2c(CCNc3ccc(Nc4ccncc4)cc3)c[nH]c2c1 [JNJ-26854165]; conditions: top dose 10 µM
Protocol: (§1)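 Human cancer cell lines in 384-well plates, medium with 10% serum, drug for 72 h over a 256-fold dose range (nine 2-fold or five 4-fold steps up to the top dose). Adherent lines were fixed and stained with the nucleic acid dye Syto60, suspension lines read with resazurin; signal relative to control wells, capped at 0 and 100%. One two-parameter sigmoid per drug and line, fitted in a mixed model over all curves with the slope shared within a line.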

OSI-906 = compound: C[C@]1(O)C[C@@H](c2nc(-c3ccc4ccc(-c5ccccc5)nc4c3)c3c(N)nccn32)C1 [OSI-906]; conditions: top dose 2.56 µM; top dose inferred
Protocol: as §1

AMG-706 = compound: CC1(C)CNc2cc(NC(=O)c3cccnc3NCc3ccncc3)ccc21 [AMG-706]; conditions: top dose 2 µM; top dose inferred
Protocol: as §1

YM155 = compound: COCC[n+]1c2c(n(Cc3cnccn3)c1C)C(=O)c1ccccc1C2=O [YM155]; conditions: top dose 5.12 µM
Protocol: as §1

PHA-665752 = compound: Cc1[nH]c(/C=C2\C(=O)Nc3ccc(S(=O)(=O)Cc4c(Cl)cccc4Cl)cc32)c(C)c1C(=O)N1CCC[C@@H]1CN1CCCC1 [PHA-665752]; conditions: top dose 2 µM
Protocol: as §1

SB-715992 = compound: Cc1ccc(C(=O)N(CCCN)[C@@H](c2nc3cc(Cl)ccc3c(=O)n2Cc2ccccc2)C(C)C)cc1 [SB-715992]; conditions: top dose 0.128 µM; top dose inferred
Protocol: as §1

FTI-277 = compound: COC(=O)[C@H](CCSC)NC(=O)c1ccc(NC[C@@H](N)CS)cc1-c1ccccc1 [FTI-277]; conditions: top dose 1.024 µM; top dose inferred
Protocol: as §1

JNK Inhibitor VIII = compound: CCOc1nc(NC(=O)Cc2cc(OC)ccc2OC)cc(N)c1C#N [JNK Inhibitor VIII]; conditions: top dose 10 µM; top dose inferred
Protocol: as §1

NSC-207895 = compound: CN1CCN(c2ccc([N+](=O)[O-])c3no[n+]([O-])c23)CC1 [NSC-207895]; conditions: top dose 20 µM; top dose inferred
Protocol: as §1

Docetaxel = compound: CC(=O)O[C@@]12CO[C@@H]1C[C@H](O)[C@@]1(C)C(=O)[C@H](O)C3=C(C)[C@@H](OC(=O)[C@H](O)[C@@H](NC(=O)OC(C)(C)C)c4ccccc4)C[C@@](O)([C@@H](OC(=O)c4ccccc4)[C@H]21)C3(C)C [Docetaxel]; conditions: top dose 0.0125 µM
Protocol: as §1

CGP-60474 = compound: OCCCNc1cc(-c2ccnc(Nc3cccc(Cl)c3)n2)ccn1 [CGP-60474]; conditions: top dose 0.256 µM; top dose inferred
Protocol: as §1

Belinostat = compound: O=C(/C=C/c1cccc(S(=O)(=O)Nc2ccccc2)c1)NO [Belinostat]; conditions: top dose 20 µM; top dose inferred
Protocol: as §1

JQ1 = compound: Cc1sc2c(c1C)C(c1ccc(Cl)cc1)=N[C@@H](CC(=O)OC(C)(C)C)c1nnc(C)n1-2 [JQ1]
Protocol: as §1

NVP-TAE684 = compound: COc1cc(N2CCC(N3CCN(C)CC3)CC2)ccc1Nc1ncc(Cl)c(Nc2ccccc2S(=O)(=O)C(C)C)n1 [NVP-TAE684]; conditions: top dose 2 µM
Protocol: as §1

Cyclopamine = compound: CC1=C2C[C@H]3[C@@H](CC=C4C[C@@H](O)CC[C@@]43C)[C@@H]2CC[C@]12O[C@@H]1C[C@H](C)CN[C@H]1[C@H]2C [Cyclopamine]; conditions: top dose 16 µM; top dose inferred
Protocol: as §1

[1] = top dose 1 µM, screen: GDSC drug entry 1218, top dose inferred
[2] = top dose 2.56 µM, screen: GDSC drug entry 163

Row | Cell Line | AUC (JNJ-26854165) | IC50 (JNJ-26854165) | AUC (OSI-906) | IC50 (OSI-906) | AUC (AMG-706) | IC50 (AMG-706) | AUC (YM155) | IC50 (YM155) | AUC (PHA-665752) | IC50 (PHA-665752) | AUC (SB-715992) | IC50 (SB-715992) | AUC (FTI-277) | IC50 (FTI-277) | AUC (JNK Inhibitor VIII) | IC50 (JNK Inhibitor VIII) | AUC (NSC-207895) | IC50 (NSC-207895) | AUC (Docetaxel) | IC50 (Docetaxel) | AUC (CGP-60474) | IC50 (CGP-60474) | AUC (Belinostat) | IC50 (Belinostat) | AUC (JQ1; [1]) | IC50 (JQ1; [1]) | AUC (JQ1; [2]) | IC50 (JQ1; [2]) | AUC (NVP-TAE684) | IC50 (NVP-TAE684) | AUC (Cyclopamine) | IC50 (Cyclopamine)
1 | KURAMOCHI (ovary, adherent) | 0.892 | > 10000 nM | 0.98 | > 2560 nM | 0.949 | > 2000 nM | 0.043 | < 20 nM | 0.98 | > 2000 nM | 0.948 | > 128 nM | 0.967 | > 1020 nM | 0.957 | > 10000 nM | 0.984 | > 20000 nM | 0.861 | > 12.5 nM | 0.641 | 42 nM | 0.48 | 1100 nM |  |  |  |  |  |  |  | 
2 | NCI-H226 (lung squamous cell carcinoma, adherent) | 0.842 | 7570 nM | 0.896 | > 2560 nM | 0.987 | > 2000 nM | 0.055 | < 20 nM |  |  | 0.877 | > 128 nM | 0.985 | > 1020 nM | 0.987 | > 10000 nM | 0.982 | > 20000 nM | 0.764 | 4.78 nM | 0.866 | 247 nM | 0.323 | 389 nM | 0.986 | > 1000 nM | 0.89 | > 2560 nM | 0.98 | > 2000 nM | 0.986 | > 16000 nM
3 | TE-1 (oesophagus, adherent) | 0.942 | > 10000 nM | 0.754 | 1080 nM | 0.982 | > 2000 nM | 0.514 | 353 nM |  |  | 0.935 | > 128 nM | 0.954 | > 1020 nM | 0.938 | > 10000 nM | 0.981 | > 20000 nM | 0.675 | 2.76 nM | 0.83 | 223 nM | 0.939 | > 20000 nM | 0.959 | > 1000 nM | 0.85 | > 2560 nM | 0.732 | 697 nM | 0.966 | > 16000 nM
4 | EKVX (lung adenocarcinoma, adherent) | 0.901 | > 10000 nM | 0.737 | 1710 nM | 0.947 | > 2000 nM | 0.103 | < 20 nM |  |  | 0.955 | > 128 nM | 0.957 | > 1020 nM | 0.965 | > 10000 nM | 0.97 | > 20000 nM | 0.776 | > 12.5 nM | 0.94 | > 256 nM | 0.78 | > 20000 nM | 0.947 | > 1000 nM | 0.841 | > 2560 nM | 0.897 | > 2000 nM | 0.955 | > 16000 nM

Reference: the supplement of paper PMC4967469
